49 cell lines from the supplement of paper PMC4967469 can be followed below.

Compound in the assay: COc1ccc(C2=N[C@@H](c3ccc(Cl)cc3)[C@@H](c3ccc(Cl)cc3)N2C(=O)N2CCNC(=O)C2)c(OC(C)C)c1 [Nutlin-3a]
The experiment in a line: Viability of human cancer cell lines after 72 h of drug (GDSC screen). The protocol: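 Human cancer cell lines in 384-well plates, medium with 10% serum, drug for 72 h over a 256-fold dose range (nine 2-fold or five 4-fold steps up to the top dose). Adherent lines were fixed and stained with the nucleic acid dye Syto60, suspension lines read with resazurin; signal relative to control wells, capped at 0 and 100%. One two-parameter sigmoid per drug and line, fitted in a mixed model over all curves with the slope shared within a line.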

pIC50: −log10 of the molar value. The IC50 comes from the fitted curve, where viability falls to half of the control; a fit beyond the top or the lowest dose is shown as a bound at that dose. AUC is the area under the same curve over the 256-fold range up to the top dose, as a fraction; it is 1 without any effect and falls as sensitivity rises.

As for “CAL-33 (head and neck, adherent, top dose 8 µM)”, the AUC was 0.931 and the pIC50 was < 5.10.
The like results for “CAL-39 (cervix, adherent, top dose 8 µM)” were, in that order, 0.981 and < 5.10.
On the same counts, the results for “CAL-51 (breast, adherent, top dose 8 µM)” are 0.892 and 5.14.
The like results for “CAL-54 (kidney, adherent, top dose 4 µM)” were, in that order, 0.861 and < 5.40.
For the cell line “CAL-62 (thyroid, adherent, top dose 8 µM)”, the AUC was determined as 0.988 and the pIC50 is < 5.10.
On the same counts, the results for “CAL-72 (osteosarcoma, adherent, top dose 8 µM)” are 0.958 and < 5.10.
The like results for “CAL-78 (chondrosarcoma, adherent, top dose 8 µM)” were, in that order, 0.985 and < 5.10.
On the same counts, the results for “CAL-85-1 (breast, adherent, top dose 8 µM)” are 0.964 and < 5.10.
As for “CAL-120 (breast, adherent, top dose 8 µM)”, the AUC is 0.937 and the pIC50 was < 5.10.
On the same counts, the results for “CAPAN-1 (pancreas, adherent, top dose 8 µM)” are 0.985 and < 5.10.
As for CAS-1 (glioma, adherent, top dose 8 µM), the AUC turned out to be 0.979 and the pIC50 is < 5.10.
As for “CCF-STTG1 (glioma, adherent, top dose 8 µM)”, the AUC was 0.793 and the pIC50 is 5.43.
On the same counts, the results for “CCK-81 (large intestine, adherent, top dose 8 µM)” are 0.698 and 5.76.
The like results for “CCRF-CEM (lymphoblastic leukaemia, suspension, top dose 8 µM)” were, in that order, 0.936 and < 5.10.
The like results for “CESS (acute myeloid leukaemia, suspension, top dose 8 µM)” were, in that order, 0.879 and 5.21.
Regarding “CFPAC-1 (pancreas, adherent, top dose 8 µM)”, the AUC turned out to be 0.941 and the pIC50 is < 5.10.
The like results for “CGTH-W-1 (thyroid, adherent, top dose 8 µM)” were, in that order, 0.98 and < 5.10.
The like results for “CHL-1 (melanoma, adherent, top dose 8 µM)” were, in that order, 0.982 and < 5.10.
For the cell line “CHP-126 (neuroblastoma, suspension, top dose 8 µM)”, the AUC came out at 0.821 and the pIC50 was 5.32.
On to “CHP-134 (neuroblastoma, suspension, top dose 8 µM)”, for which the AUC amounted to 0.769 and the negative-log IC50 (pIC50) is 5.42.
The like results for “CHP-212 (neuroblastoma, adherent, top dose 8 µM)” were, in that order, 0.667 and 5.85.
For the cell line “CHSA0011 (chondrosarcoma, adherent, top dose 8 µM)”, the AUC worked out at 0.903 and the pIC50 is < 5.10.
As for “CHSA0108 (chondrosarcoma, adherent, top dose 8 µM)”, the AUC was determined as 0.981 and the pIC50 is < 5.10.
On the same counts, the results for “CHSA8926 (chondrosarcoma, adherent, top dose 8 µM)” are 0.833 and < 5.10.
On the same counts, the results for “CL-11 (large intestine, adherent, top dose 8 µM)” are 0.937 and < 5.10.
On the same counts, the results for “CL-34 (large intestine, adherent, top dose 8 µM)” are 0.985 and < 5.10.
Take “CL-40 (large intestine, adherent, top dose 8 µM)”: the AUC came to 0.965 and the pIC50 was < 5.10.
On the same counts, the results for “CMK (acute myeloid leukaemia, suspension, top dose 8 µM)” are 0.98 and < 5.10.
For the cell line “CML-T1 (chronic myeloid leukaemia, suspension, top dose 8 µM)”, the AUC is 0.87 and the pIC50 was 5.27.
On the same counts, the results for “COLO-205 (large intestine, suspension, top dose 8 µM)” are 0.943 and < 5.10.
On the same counts, the results for “COLO-320-HSR (large intestine, suspension, top dose 8 µM)” are 0.991 and < 5.10.
On the same counts, the results for “COLO-668 (small cell lung carcinoma, adherent, top dose 8 µM)” are 0.983 and < 5.10.
On to “COLO-678 (large intestine, semi-adherent, top dose 8 µM)”, for which the AUC was determined as 0.879 and the pIC50 is < 5.10.
On the same counts, the results for “COLO-679 (melanoma, adherent, top dose 8 µM)” are 0.856 and 5.11.
As for “COLO-680N (oesophagus, adherent, top dose 8 µM)”, the AUC came out at 0.946 and the pIC50 was < 5.10.
Take “COLO-684 (endometrium, suspension, top dose 8 µM)”: the AUC stood at 0.982 and the pIC50 is < 5.10.
The like results for “COLO-783 (melanoma, adherent, top dose 8 µM)” were, in that order, 0.97 and < 5.10.
The like results for “COLO-800 (melanoma, adherent, top dose 8 µM)” were, in that order, 0.983 and < 5.10.
Consider “COLO-824 (breast, adherent, top dose 8 µM)”, for which the AUC was 0.986 and the pIC50 is < 5.10.
On the same counts, the results for “COR-L23 (large cell lung carcinoma, adherent, top dose 8 µM)” are 0.917 and < 5.10.
Consider “COR-L88 (small cell lung carcinoma, adherent, top dose 8 µM)”, for which the AUC is 0.985 and the pIC50 is < 5.10.
Turning to “COR-L95 (small cell lung carcinoma, adherent, top dose 8 µM)”, the AUC came to 0.986 and the pIC50 was < 5.10.
The like results for “COR-L279 (small cell lung carcinoma, suspension, top dose 8 µM)” were, in that order, 0.991 and < 5.10.
On the same counts, the results for “COR-L321 (lung, suspension, top dose 8 µM)” are 0.978 and < 5.10.
The like results for “CP50-MEL-B (melanoma, adherent, top dose 8 µM)” were, in that order, 0.77 and 5.52.
Take “CP66-MEL (melanoma, adherent, top dose 8 µM)”: the AUC worked out at 0.983 and the pIC50 is < 5.10.
Consider “CPC-N (small cell lung carcinoma, suspension, top dose 8 µM)”, for which the AUC is 0.94 and the pIC50 was < 5.10.
On the same counts, the results for “CRO-AP2 (B-cell lymphoma, suspension, top dose 8 µM)” are 0.653 and 5.90.
On the same counts, the results for CS1 (bone, adherent, top dose 8 µM) are 0.978 and < 5.10.
